Assay in all cases: Reference broth microdilution (once per isolate) and two commercial panels; inhibitor fixed at 4 µg/mL.
On the technique in general: Dilution methods test growth across graded concentrations, often in twofold steps.

Compound in one assay: C[C@@H](O)[C@H]1C(=O)N2C(C(=O)O)=C(SCCNC=N)C[C@H]12 [imipenem]
The conditions noted are these: reference broth microdilution.

Compound in another assay: CC(C)(O/N=C(\C(=O)N[C@@H]1C(=O)N2C(C(=O)[O-])=C(C[n+]3ccccc3)CS[C@H]12)c1csc(N)n1)C(=O)O [ceftazidime] (with: avibactam 4 µg/mL)
Compound in another assay: Cn1c(N)c(NC(=O)NCCN)c[n+]1CC1=C(C(=O)[O-])N2C(=O)[C@@H](NC(=O)/C(=N\OC(C)(C)C(=O)O)c3nsc(N)n3)[C@H]2SC1 [ceftolozane] (with: tazobactam 4 µg/mL)

MIC of multidrug-resistant clinical P. aeruginosa isolates by reference broth microdilution, Sensititre or Phoenix panel; µg/mL of the β-lactam, with the inhibitor fixed at 4 µg/mL where named; higher = less susceptible; each panel covers only a few steps. No active / inactive call per row; the paper applies CLSI M100 breakpoints. The methods often differ by one or more steps on the same isolate. Several isolates can come from one patient. PDC is the chromosomal AmpC β-lactamase of the species; the number names its allele. Isolates are numbered anew.

The term MIC denotes the least concentration at which growth counts as inhibited. For “Pseudomonas aeruginosa isolate 173 (PDC allele: blaPDC-1, ftsI change: ftsI_R504C)”, the MIC with imipenem was more than 8 µg/mL; with ceftazidime (BD Phoenix panel), more than 8 µg/mL; with ceftazidime (reference broth microdilution), not below 32 µg/mL; in the assay with ceftolozane (BD Phoenix panel), 8 µg/mL; with ceftolozane (reference broth microdilution) it was not below 16 µg/mL.

As for “Pseudomonas aeruginosa isolate 174 (PDC allele: blaPDC-8)”, the MIC was more than 8 µg/mL with imipenem; 8 µg/mL with ceftazidime (BD Phoenix panel); not above 4 µg/mL with ceftazidime (Sensititre panel); not above 4 µg/mL with ceftazidime (reference broth microdilution); 2 µg/mL with ceftolozane (BD Phoenix panel); 4 µg/mL with ceftolozane (Sensititre panel). Also, in the assay with ceftolozane (reference broth microdilution), the MIC amounted to 4 µg/mL.

In the case of “Pseudomonas aeruginosa isolate 175 (PDC allele: blaPDC-31)”, the minimal inhibitory concentration (MIC) with imipenem came out at 8 µg/mL; in the assay with ceftazidime (BD Phoenix panel), 4 µg/mL; with ceftazidime (reference broth microdilution), 16 µg/mL; with ceftolozane (BD Phoenix panel), 2 µg/mL; with ceftolozane (reference broth microdilution), 8 µg/mL.

As for “Pseudomonas aeruginosa isolate 177 (PDC allele: blaPDC-35)”, the MIC in the assay with imipenem is 8 µg/mL; with ceftazidime (BD Phoenix panel) it was more than 8 µg/mL; in the assay with ceftazidime (reference broth microdilution), 8 µg/mL; with ceftolozane (BD Phoenix panel), 4 µg/mL; with ceftolozane (reference broth microdilution), 4 µg/mL.

As to “Pseudomonas aeruginosa isolate 178 (ESBL gene: blaPAC-1, PDC allele: blaPDC-36)”, the minimal inhibitory concentration (MIC) in the assay with imipenem is more than 8 µg/mL; with ceftazidime (BD Phoenix panel) it was more than 8 µg/mL; with ceftazidime (reference broth microdilution), not below 32 µg/mL; with ceftolozane (BD Phoenix panel), more than 8 µg/mL; in the assay with ceftolozane (reference broth microdilution), not below 16 µg/mL.

With “Pseudomonas aeruginosa isolate 179 (PDC allele: blaPDC-8)”, the MIC in the assay with imipenem is not above 1 µg/mL; with ceftazidime (BD Phoenix panel), 2 µg/mL; with ceftazidime (reference broth microdilution), not above 4 µg/mL; with ceftolozane (BD Phoenix panel), not above 1 µg/mL; with ceftolozane (reference broth microdilution), not above 1 µg/mL.

As to “Pseudomonas aeruginosa isolate 180 (PDC allele: blaPDC-31)”, the MIC in the assay with imipenem was not above 1 µg/mL; with ceftazidime (BD Phoenix panel) it was 4 µg/mL; in the assay with ceftazidime (reference broth microdilution), not above 4 µg/mL; with ceftolozane (BD Phoenix panel), not above 1 µg/mL; with ceftolozane (reference broth microdilution), not above 1 µg/mL.

Take “Pseudomonas aeruginosa isolate 181 (PDC allele: blaPDC-28)”: the minimum inhibitory concentration (MIC) with imipenem is 4 µg/mL; with ceftazidime (BD Phoenix panel), 2 µg/mL; in the assay with ceftazidime (Sensititre panel), not above 4 µg/mL; with ceftazidime (reference broth microdilution), not above 4 µg/mL; in the assay with ceftolozane (BD Phoenix panel) it was not above 1 µg/mL; with ceftolozane (Sensititre panel), 2 µg/mL. Also, the minimum inhibitory concentration (MIC) in the assay with ceftolozane (reference broth microdilution) worked out at 2 µg/mL.

For the test system “Pseudomonas aeruginosa isolate 182 (ESBL gene: blaPAC-1, PDC allele: blaPDC-36)”, the MIC in the assay with imipenem was more than 8 µg/mL; in the assay with ceftazidime (BD Phoenix panel) it was more than 8 µg/mL; with ceftazidime (reference broth microdilution), not below 32 µg/mL; in the assay with ceftolozane (BD Phoenix panel), more than 8 µg/mL; with ceftolozane (reference broth microdilution), not below 16 µg/mL.

On to “Pseudomonas aeruginosa isolate 183 (PDC allele: blaPDC-266)”, for which the MIC is more than 8 µg/mL with imipenem; 4 µg/mL with ceftazidime (BD Phoenix panel); 8 µg/mL with ceftazidime (Sensititre panel); 8 µg/mL with ceftazidime (reference broth microdilution); 4 µg/mL with ceftolozane (BD Phoenix panel); 4 µg/mL with ceftolozane (Sensititre panel). In the assay with ceftolozane (reference broth microdilution), the MIC was determined as 4 µg/mL.

Turning to “Pseudomonas aeruginosa isolate 184 (PDC allele: blaPDC-24)”, the minimal inhibitory concentration (MIC) with imipenem is more than 8 µg/mL; with ceftazidime (BD Phoenix panel) it was 4 µg/mL; in the assay with ceftazidime (Sensititre panel) it was 16 µg/mL; with ceftazidime (reference broth microdilution) it was 16 µg/mL; in the assay with ceftolozane (BD Phoenix panel) it was 2 µg/mL; with ceftolozane (Sensititre panel), 8 µg/mL. Besides, in the assay with ceftolozane (reference broth microdilution), the minimal inhibitory concentration (MIC) was found to be 8 µg/mL.

Turning to “Pseudomonas aeruginosa isolate 185 (ESBL gene: blaVEB-14, PDC allele: blaPDC-11, carbapenemase gene: blaVIM-5)”, the minimum inhibitory concentration (MIC) with imipenem is more than 8 µg/mL; with ceftazidime (BD Phoenix panel) it was more than 8 µg/mL; with ceftazidime (Sensititre panel), more than 16 µg/mL; with ceftazidime (reference broth microdilution), not below 32 µg/mL; with ceftolozane (BD Phoenix panel) it was more than 8 µg/mL; with ceftolozane (Sensititre panel) it was more than 8 µg/mL. For the same test system, the MIC with ceftolozane (reference broth microdilution) is not below 16 µg/mL.

Take “Pseudomonas aeruginosa isolate 186 (PDC allele: blaPDC-1)”: the MIC was more than 8 µg/mL with imipenem; 8 µg/mL with ceftazidime (BD Phoenix panel); not above 4 µg/mL with ceftazidime (reference broth microdilution); 4 µg/mL with ceftolozane (BD Phoenix panel); 4 µg/mL with ceftolozane (reference broth microdilution).

The values are drawn from the supplement of paper PMC13016719.
